Data taken from the supplement of paper PMC3334620.
Over roughly 33,000 sequences, “E-score (-0.5 to 0.5)” has its median near -0.036; the highest 2% begin near 0.37. The list shows a part of the results.

Molecular target: T1, Yer064c (UniProt P40041)
T1 sequence: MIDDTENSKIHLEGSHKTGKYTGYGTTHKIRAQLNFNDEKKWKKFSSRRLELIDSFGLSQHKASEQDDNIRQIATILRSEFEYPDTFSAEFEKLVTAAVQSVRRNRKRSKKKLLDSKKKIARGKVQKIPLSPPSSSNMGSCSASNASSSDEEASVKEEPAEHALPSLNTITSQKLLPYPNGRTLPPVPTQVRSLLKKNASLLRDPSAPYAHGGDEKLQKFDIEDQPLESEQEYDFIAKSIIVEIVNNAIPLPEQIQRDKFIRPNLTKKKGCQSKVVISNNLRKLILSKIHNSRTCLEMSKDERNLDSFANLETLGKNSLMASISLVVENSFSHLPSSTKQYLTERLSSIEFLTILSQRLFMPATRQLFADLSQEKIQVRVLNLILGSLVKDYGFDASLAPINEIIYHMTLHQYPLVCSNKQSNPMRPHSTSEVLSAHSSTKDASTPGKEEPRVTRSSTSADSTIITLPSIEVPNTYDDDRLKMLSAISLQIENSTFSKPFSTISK
Assay: PBM E-score (8-mer binding enrichment) (E-score (-0.5 to 0.5)); higher = stronger / more preferred TF binding; most listed sequences are background and not binding sites
Settings: protein concentration: 200 nM; construct: GST-full length
Summary of the method: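 Each ungapped eight-base word and its reverse complement, pooled, received an E-score from the Universal PBM Analysis Suite. Underlying scans, normalised with masliner, recorded fluorescent anti-GST bound to GST-tagged yeast transcription factors. These were applied at about 100-200 nM to universal all-10-mer Agilent arrays double-stranded by primer extension.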

Sequence	PBM E-score
ACGAGTCT	0.312
CTACGTCA	-0.0828
CACGTTAG	0.151
ACAGCGGT	-0.0996
GGCGTTAA	-0.128
GTCAACTA	0.262
ATCACGGA	0.104
ACAGAGCC	-0.108
CCGTGTCG	-0.165
ACTCGATA	0.254
CATCGAAA	-0.0293
AATGTCGG	-0.0528
CCCCTATA	-0.0947
AATACGCG	-0.195
TATCATCA	0.0107
GAATCAGC	0.417
AGTTAACT	0.0919
CATGTCAA	-0.0691
CCAAAGCG	-0.249
ATATTGGG	-0.284
AATGACCC	-0.0705
CCCTATTA	-0.165
ACAGGGTG	-0.0572
ATCTCAAC	0.18
AGAGCGCG	-0.0984

Sequence	PBM E-score
CAGGCCAA	-0.193
CAATGAAC	-0.0322
ACACCACG	-0.122
ACCATGAG	0.0211
CAATTTTC	-0.244
AGATCCTC	-0.326
CTATCGTA	0.025
AGGGGGCA	-0.244
ATCTGTTA	0.0654
AAGAAACT	-0.0492
CGATCCCA	-0.137
AACATAAT	0.0551
CAAAATGA	0.118
GTGGTATA	-0.0168
ATTATGGC	0.0943
ACGAGCAA	-0.0062
CCCCCTGA	-0.184
CCTTATCC	-0.181
ACTGCAAT	0.087
GCCCAGGC	-0.291
CGCCGAAG	0.051
ACCACTGG	-0.176
CGACCACA	-0.0944
ACTCGCGA	0.224
GACGCGCC	-0.293

Sequence	PBM E-score
AGCAGCAG	-0.0489
ACAACGAA	0.131
ACAATTCC	-0.158
ATCGTTTA	0.142
ATGCGCCC	-0.187
AGCTGGAG	-0.13
GACAGTAA	0.165
TGAATAAA	0.157
ATGAAGGG	-0.109
CGTTGGGA	-0.147
GCCAGACC	-0.295
CTACGGAG	0.0201
AGGGCTTG	-0.118
CAAGCTAC	-0.0324
CGGGATAG	-0.189
ACAGTAAC	0.0667
CCCCTAGC	-0.345
GGCACGCA	-0.34
CACTGCTA	0.151
ACGCGGGG	-0.0963
AACTAGTG	-0.0858
CGTCCGAG	-0.187
AGACCTAG	-0.0226
CAATCCTA	-0.0186
AGTCGGGG	0.304

Sequence	PBM E-score
ATAGGCGA	-0.103
GGCTGACC	-0.0263
CGTTAGTA	0.0645
AACAATCG	-0.0784
CGGTCTAC	-0.0583
GATAACCA	0.0591
TCGGAGAA	0.0416
CCTTAAGC	-0.174
CGACGAGC	-0.0822
ACTGGGGC	-0.0604
TCGAGCAA	0.00286
AGGACATG	-0.0955
CGGACTTA	0.203
GCAGGCGA	-0.0244
GACAGGTC	-0.248
CAGCGTTA	0.00377
TAAATAAA	0.0687
ACTAAGTA	0.235
AGGTATGC	-0.0991
CCGGCCAC	-0.295
AAGGGCGC	-0.139
CATCTACC	-0.0249
AACACGGA	0.0872
ATAGTGCG	-0.199
CAAAAATG	-0.0502

Sequence	PBM E-score
AAAGGTTG	-0.0089
CCTGACGC	-0.133
AGGACAGG	-0.316
CTATTTGA	0.0437
AACTAGGA	-0.00798
GAAGATAC	-0.135
TAATGTCA	-0.258
CCCACCCA	-0.141
AGTATTAT	0.0665
GCTAGGCC	-0.192
AACTATGG	0.0319
AGAACTTC	-0.0562
ACCAGAGA	-0.0301
ACTGGACG	-0.148
CAGCTGGA	0.103
GTTAACGA	0.0669
GGCGAATA	-0.0639
GCACTAAA	0.0628
GGAGTCAA	0.431
AGATTGTC	-0.0569
CTCGTTAC	0.0242
TATGTCGA	0.11
AAATACGT	-0.298
CTCTGCGA	0.234
CTTGTCTA	-0.0944

Sequence	PBM E-score
AACGAACG	-0.00189
CCGACCCC	-0.299
AAGGCTCC	-0.264
AGACGCTC	-0.242
AGATCCCA	-0.186
CTATCACC	-0.18
CTTTACAA	-0.0468
CTTCTTGA	0.153
AAGCGCTG	-0.0331
CTCAAGGA	0.106
AAGACCTC	-0.0548
ACCCATAG	0.101
TCAGCCGA	0.21
CCTCGCTA	-0.157
CTGTTACA	-0.0433
GCAGGACA	-0.234
AAATAAGA	0.0164
ACCCGTTA	-0.127
ATATAAGA	0.156
CCGCTCGC	-0.338
CGTTTGCA	-0.157
CAATGCTA	0.0441
CTGTCGAA	-0.216
AGGCCAAA	-0.0373
CAAGGAAC	-0.0409

Sequence	PBM E-score
AAAGCAAG	0.00899
AAGATTCG	0.205
GCTTAAGA	0.00642
AGTGATAA	-0.0496
AGCTAACG	-0.194
TCAGGCAA	0.0469
ATGCAGAC	0.0597
CCCATGAA	-0.0941
CGGAGCTC	-0.288
CTTCCAAA	0.0995
GGACATAC	0.00983
ACTTAGAT	0.182
AACAAATG	0.00915
CCTTTTAC	-0.124
CGTGCATC	-0.141
AGTAAAAC	0.00304
ACTGCCGC	-0.0169
CCCGCGAA	0.0838
ATCGTAAG	-0.0159
GAAGATCC	-0.181
AACGTTTG	-0.298
CAGCTAGA	-0.0194
